Measured values taken from the supplement of paper PMC8728848.
The list shows a part of the results.

Experiments:
Assay in all cases: glycan array binding signal (z-score within array); higher = stronger binding
Settings in all cases: glycan notation: IUPAC condensed, linker removed
Gal(b1-2)Gal = molecular target: Gal(b1-2)Gal
Method in brief: (§1)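 The binding signal is a Z-score computed within each array. Data were drawn from 3228 arrays in the Consortium for Functional Glycomics database, restricted to those with a known protein sequence. Scores were averaged over arrays of the same protein sequence at different concentrations or buffers, and over linkers, and negative values can be taken as non-binding.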

Gal(b1-3)Gal = molecular target: Gal(b1-3)Gal
Method in brief: as §1

Gal(b1-3)Gal(b1-4)GlcNAc = molecular target: Gal(b1-3)Gal(b1-4)GlcNAc
Method in brief: as §1

Gal(b1-3)GalNAc = molecular target: Gal(b1-3)GalNAc
Method in brief: as §1

[1] = molecular target: Gal(b1-3)GalNAc(b1-3)Gal(a1-4)Gal(b1-4)Glc
Method in brief: as §1

[2] = molecular target: Gal(b1-3)GalNAc(b1-4)Gal(b1-4)Glc
Method in brief: as §1

[3] = molecular target: Gal(b1-3)GalNAc(b1-4)[Neu5Ac(a2-3)]Gal(b1-4)Glc
Method in brief: as §1

Gal(b1-3)GlcNAc = molecular target: Gal(b1-3)GlcNAc
Method in brief: as §1

[4] = molecular target: Gal(b1-3)GlcNAc(b1-2)Man(a1-3)[Gal(b1-3)GlcNAc(b1-2)Man(a1-6)]Man(b1-4)GlcNAc(b1-4)GlcNAc
Method in brief: as §1

[5] = molecular target: Gal(b1-3)GlcNAc(b1-3)Gal(b1-3)GlcNAc
Method in brief: as §1

[6] = molecular target: Gal(b1-3)GlcNAc(b1-3)Gal(b1-4)Glc
Method in brief: as §1

[7] = molecular target: Gal(b1-3)GlcNAc(b1-3)Gal(b1-4)GlcNAc
Method in brief: as §1

[8] = molecular target: Gal(b1-3)[Fuc(a1-4)]GlcNAc
Method in brief: as §1

[9] = molecular target: Gal(b1-3)[Fuc(a1-4)]GlcNAc(b1-3)Gal(b1-3)[Fuc(a1-4)]GlcNAc
Method in brief: as §1

[10] = molecular target: Gal(b1-3)[Fuc(a1-4)]GlcNAc(b1-3)Gal(b1-4)GlcNAc
Method in brief: as §1

[11] = molecular target: Gal(b1-3)[Fuc(a1-4)]GlcNAc(b1-3)Gal(b1-4)[Fuc(a1-3)]GlcNAc
Method in brief: as §1

[12] = molecular target: Gal(b1-3)[GlcNAc(b1-6)]GalNAc
Method in brief: as §1

[13] = molecular target: Gal(b1-3)[Neu5Ac(a2-6)]GalNAc
Method in brief: as §1

[14] = molecular target: Gal(b1-3)[Neu5Ac(a2-6)]GlcNAc(b1-6)Gal(b1-4)Glc
Method in brief: as §1

[15] = molecular target: Gal(b1-3)[Neu5Ac(b2-6)]GalNAc
Method in brief: as §1

[16] = molecular target: Gal(b1-4)GalNAc(a1-3)[Fuc(a1-2)]Gal(b1-4)GlcNAc
Method in brief: as §1

[17] = molecular target: Gal(b1-4)GalNAc(b1-3)[Fuc(a1-2)]Gal(b1-4)GlcNAc
Method in brief: as §1

Gal(b1-4)Glc = molecular target: Gal(b1-4)Glc
Method in brief: as §1

Gal(b1-4)Glc6S = molecular target: Gal(b1-4)Glc6S
Method in brief: as §1

Gal(b1-4)GlcNAc = molecular target: Gal(b1-4)GlcNAc
Method in brief: as §1

[18] = molecular target: Gal(b1-4)GlcNAc(a1-6)Gal(b1-4)GlcNAc
Method in brief: as §1

[19] = molecular target: Gal(b1-4)GlcNAc(b1-2)Man(a1-3)[Gal(b1-4)GlcNAc(b1-2)Man(a1-6)]Man(b1-4)GlcNAc(b1-4)GlcNAc
Method in brief: as §1

[20] = molecular target: Gal(b1-4)GlcNAc(b1-3)Gal(b1-3)GlcNAc
Method in brief: as §1

[21] = molecular target: Gal(b1-4)GlcNAc(b1-3)Gal(b1-4)Glc
Method in brief: as §1

[22] = molecular target: Gal(b1-4)GlcNAc(b1-3)Gal(b1-4)GlcNAc
Method in brief: as §1

[23] = molecular target: Gal(b1-4)GlcNAc(b1-3)Gal(b1-4)GlcNAc(b1-3)Gal(b1-4)GlcNAc
Method in brief: as §1

[24] = molecular target: Gal(b1-4)GlcNAc(b1-3)Gal(b1-4)[Fuc(a1-3)]GlcNAc(b1-3)Gal(b1-4)[Fuc(a1-3)]GlcNAc
Method in brief: as §1

[25] = molecular target: Gal(b1-4)GlcNAc(b1-3)GalNAc
Method in brief: as §1

[26] = molecular target: Gal(b1-4)GlcNAc(b1-3)[Gal(b1-4)GlcNAc(b1-6)]Gal(b1-4)GlcNAc
Method in brief: as §1

[27] = molecular target: Gal(b1-4)GlcNAc(b1-3)[GlcNAc(b1-6)]Gal(b1-4)GlcNAc
Method in brief: as §1

[28] = molecular target: Gal(b1-4)GlcNAc(b1-6)Gal(b1-4)GlcNAc
Method in brief: as §1

[29] = molecular target: Gal(b1-4)GlcNAc(b1-6)Gal(b1-4)GlcNAc(b1-6)GalNAc
Method in brief: as §1

[30] = molecular target: Gal(b1-4)GlcNAc(b1-6)GalNAc
Method in brief: as §1

[31] = molecular target: Gal(b1-4)GlcNAc(b1-6)[Gal(b1-3)]GalNAc
Method in brief: as §1

Gal3S(b1-3)GalNAc = molecular target: Gal3S(b1-3)GalNAc
Method in brief: as §1

Gal3S(b1-3)GlcNAc = molecular target: Gal3S(b1-3)GlcNAc
Method in brief: as §1

[32] = molecular target: Gal3S(b1-3)[Fuc(a1-4)]GlcNAc
Method in brief: as §1

Gal3S(b1-4)Glc = molecular target: Gal3S(b1-4)Glc
Method in brief: as §1

Gal3S(b1-4)Glc6S = molecular target: Gal3S(b1-4)Glc6S
Method in brief: as §1

Gal3S(b1-4)GlcNAc = molecular target: Gal3S(b1-4)GlcNAc
Method in brief: as §1

Gal3S(b1-4)GlcNAc6S = molecular target: Gal3S(b1-4)GlcNAc6S
Method in brief: as §1

[33] = molecular target: Gal3S(b1-4)[Fuc(a1-3)]Glc
Method in brief: as §1

Gal3S4S(b1-4)GlcNAc = molecular target: Gal3S4S(b1-4)GlcNAc
Method in brief: as §1

Gal3S6S(b1-4)GlcNAc = molecular target: Gal3S6S(b1-4)GlcNAc
Method in brief: as §1

Gal3S6S(b1-4)GlcNAc6S = molecular target: Gal3S6S(b1-4)GlcNAc6S
Method in brief: as §1

Gal4S(b1-4)GlcNAc = molecular target: Gal4S(b1-4)GlcNAc
Method in brief: as §1

Gal4S6S(b1-4)GlcNAc = molecular target: Gal4S6S(b1-4)GlcNAc
Method in brief: as §1

Gal6S(b1-4)Glc = molecular target: Gal6S(b1-4)Glc
Method in brief: as §1

Gal6S(b1-4)Glc6S = molecular target: Gal6S(b1-4)Glc6S
Method in brief: as §1

Gal6S(b1-4)GlcNAc = molecular target: Gal6S(b1-4)GlcNAc
Method in brief: as §1

Gal6S(b1-4)GlcNAc6S = molecular target: Gal6S(b1-4)GlcNAc6S
Method in brief: as §1

GalNAc(a1-3)Gal = molecular target: GalNAc(a1-3)Gal
Method in brief: as §1

GalNAc(a1-3)GalNAc = molecular target: GalNAc(a1-3)GalNAc
Method in brief: as §1

GalNAc(b1-3)Gal = molecular target: GalNAc(b1-3)Gal
Method in brief: as §1

[34] = molecular target: GalNAc(b1-3)Gal(a1-4)Gal(b1-4)GlcNAc
Method in brief: as §1

B1: NESD (Drosophila melanogaster), NP_610025.1 (protein)
chain: MGHHHHHHSSGVDLGTENLYFQSMMEVFTFEKSYLERLKEAEAVLSWEGAVMPASQVRSEWKSYVELKIEPAGWQAIWKIPRVICEDLKLRYPTIVYGYVEQVIFDELKAVFVVTAVQDSDVHLPESNEVSLVELWPTVQQENAALNVDTTAECIDRLRFFYTHVWMPWDKDYDDDRDWVQQHLQARIQLVCDLSKNRLPRPLALHMRTLLAEAKYIQQRLDYLELDLSDAESDDEAVELNDSVAEPARKQSKAGSANGCLNVSSLPVTDLMCLHLRMAIIRSEFEILENPEMRRAYSELQSNSLKRLRCSSGRTRQSEDLLVERNSISHVVTLPGKLQQQLELLKLAQTLVKPESKVQLSNTLQDVLSICQSNDDILLSPGEHTIKFLEHLNDNGSLRGLTQPEAILSPAADLSLLPVVCSSDEDSTLLVIDGDYTLSELVLDCRHVRRGILLRNGTLTMRGCRLLGDGSSSTQEGIVCMPGASVELKSCLIENFAVGVSMRPKSSAELGSVQFKTCKTGLELLEKSASVNLQGSKCSFENCALGILADGFVLGEQRTEKVLVLNKFSELQRYNEDNLLGNCSFYNCKKNVRVFNESGQLLAQRSHQQLLEDELGGENKENIQLV
In the case of B1, the “glycan array binding signal (z-score)” value (Gal(b1-2)Gal) is reported as 0.961, the “glycan array binding signal (z-score)” value (Gal(b1-3)Gal) is reported as 0.646 and the “glycan array binding signal (z-score)” value (Gal(b1-3)Gal(b1-4)GlcNAc) is reported as 0.487. For the same binder, the “glycan array binding signal (z-score)” value (Gal(b1-3)GalNAc) was 0.704, the “glycan array binding signal (z-score)” value [1] was -0.112 and the “glycan array binding signal (z-score)” value [2] was 0.482. For the same binder, the “glycan array binding signal (z-score)” value [3] was -0.161, the “glycan array binding signal (z-score)” value (Gal(b1-3)GlcNAc) was -0.219 and the “glycan array binding signal (z-score)” value [4] was -0.613. The “glycan array binding signal (z-score)” value [5] was -0.584, the “glycan array binding signal (z-score)” value [6] was 0.27 and the “glycan array binding signal (z-score)” value [7] was -0.14. The “glycan array binding signal (z-score)” value [8] was -0.017, the “glycan array binding signal (z-score)” value [9] was -0.192 and the “glycan array binding signal (z-score)” value [10] was -0.241. For the same binder, the “glycan array binding signal (z-score)” value [11] was -0.47, the “glycan array binding signal (z-score)” value [12] was -0.273 and the “glycan array binding signal (z-score)” value [13] was -0.31. The “glycan array binding signal (z-score)” value [14] was -0.315, the “glycan array binding signal (z-score)” value [15] was -0.382 and the “glycan array binding signal (z-score)” value [16] was -0.37. The “glycan array binding signal (z-score)” value [17] was -0.195, the “glycan array binding signal (z-score)” value (Gal(b1-4)Glc) was 3.98 and the “glycan array binding signal (z-score)” value (Gal(b1-4)Glc6S) was 2.75. For the same binder, the “glycan array binding signal (z-score)” value (Gal(b1-4)GlcNAc) was -0.379, the “glycan array binding signal (z-score)” value [18] was -0.476 and the “glycan array binding signal (z-score)” value [19] was -0.591. For the same binder, the “glycan array binding signal (z-score)” value [20] was 0.385, the “glycan array binding signal (z-score)” value [21] was 0.671 and the “glycan array binding signal (z-score)” value [22] was 0.201. For the same binder, the “glycan array binding signal (z-score)” value [23] was 0.303, the “glycan array binding signal (z-score)” value [24] was -0.398 and the “glycan array binding signal (z-score)” value [25] was 1.15. The “glycan array binding signal (z-score)” value [26] was -0.288, the “glycan array binding signal (z-score)” value [27] was -0.141 and the “glycan array binding signal (z-score)” value [28] was -0.226. The “glycan array binding signal (z-score)” value [29] was 0.204, the “glycan array binding signal (z-score)” value [30] was -0.052 and the “glycan array binding signal (z-score)” value [31] was -0.481. For the same binder, the “glycan array binding signal (z-score)” value (Gal3S(b1-3)GalNAc) was -0.093, the “glycan array binding signal (z-score)” value (Gal3S(b1-3)GlcNAc) was 0.565 and the “glycan array binding signal (z-score)” value [32] was 0.667. For the same binder, the “glycan array binding signal (z-score)” value (Gal3S(b1-4)Glc) was 0.002, the “glycan array binding signal (z-score)” value (Gal3S(b1-4)Glc6S) was 0.989 and the “glycan array binding signal (z-score)” value (Gal3S(b1-4)GlcNAc) was 0.142. The “glycan array binding signal (z-score)” value (Gal3S(b1-4)GlcNAc6S) was 0.265, the “glycan array binding signal (z-score)” value [33] was -0.195 and the “glycan array binding signal (z-score)” value (Gal3S4S(b1-4)GlcNAc) was 0.201. The “glycan array binding signal (z-score)” value (Gal3S6S(b1-4)GlcNAc) was 0.381, the “glycan array binding signal (z-score)” value (Gal3S6S(b1-4)GlcNAc6S) was 1.17 and the “glycan array binding signal (z-score)” value (Gal4S(b1-4)GlcNAc) was 0.349. For the same binder, the “glycan array binding signal (z-score)” value (Gal4S6S(b1-4)GlcNAc) was 0.471, the “glycan array binding signal (z-score)” value (Gal6S(b1-4)Glc) was 0.025 and the “glycan array binding signal (z-score)” value (Gal6S(b1-4)Glc6S) was 0.976. For the same binder, the “glycan array binding signal (z-score)” value (Gal6S(b1-4)GlcNAc) was 0.164, the “glycan array binding signal (z-score)” value (Gal6S(b1-4)GlcNAc6S) was 0.078 and the “glycan array binding signal (z-score)” value (GalNAc(a1-3)Gal) was -0.167. For the same binder, the “glycan array binding signal (z-score)” value (GalNAc(a1-3)GalNAc) was -0.092, the “glycan array binding signal (z-score)” value (GalNAc(b1-3)Gal) was 0.297 and the “glycan array binding signal (z-score)” value [34] was -0.427.
